Assay results reported in ChEMBL document CHEMBL1201862, “PubChem BioAssay data set” (2004).
Values joined by “and” are separate entries in the source; they are usually repeats but may differ in a detail not shown here. Identical values can stand only once.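 Five concentrations, 48 hours, 96-well plates. GI50: concentration for 50% inhibition of growth.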 Active and inactive are the calls of the source. Rule as the data show it: active = GI50 up to about 1.1 µM and inactive = higher.

Test system: NCI-H322M
Assay: inhibition of tumour cell growth, NCI panel, 48 h

Row | Structure (SMILES) | GI50
1 | Nc1nc(N)c(N=Nc2ccc([As](=O)(O)O)c(O)c2)c(N)n1 | inactive: > 78.3 µM
2 | COc1cccc(Nc2n[nH]c(NS(=O)(=O)c3cc(C)c(Cl)cc3S)n2)c1 | inactive: > 100 µM
3 | Cc1c(Cl)cccc1NC(=O)CC1Sc2ccccc2NC1=O (stereo not given) | inactive: 27.4 µM and inactive: 33 µM
4 | COc1ccc(-n2cnc3c(N)nc(N)nc32)cc1 | inactive: > 100 µM
5 | C=C(C=O)c1c2c(nc3ccccc13)C(=O)c1ccccc1C2=O | inactive: 1.52 µM
6 | CCOc1ccc2nc(NC(=O)C(=O)C(c3cnc4ccccc4n3)[N+](=O)[O-])sc2c1 (stereo not given) | inactive: > 100 µM
7 | CS/C(Nc1ccccc1)=C1\C(=O)N(c2ccccc2)N=C1C | inactive: > 100 µM
8 | CCSC1=C(C)N(/C=N/C(C)(C)C)CC1 | inactive: > 100 µM
9 | C=CCCCCCC(O)C(O)C/C=C\C/C=C\CC (stereo not given) | inactive: > 18.8 µM
10 | C[C@@H]1CCC[C@]2(C)O[C@H]2CC[C@@](C)(O)[C@@H]2CC3=C(CO)C(=O)O[C@H]3[C@H]1O2 | inactive: > 50 µM
11 | CN(N=O)C(=N)NC(=O)c1ccccc1 | inactive: > 100 µM
12 | COc1ccc(/C=C/c2nnc(S)[nH]2)cc1 | inactive: > 100 µM
13 | CCCCCCSC[C@H](OC(C)=O)[C@@H](OC(C)=O)[C@@H](OC(C)=O)[C@@H](COC(C)=O)OC(C)=O | inactive: > 100 µM
14 | C/C(=N\Nc1ccccc1Br)c1cccc(/C(C)=N/Nc2ccccc2Br)n1 | inactive: > 100 µM
15 | CC(=O)OC1=C(c2ccccc2)S(=O)(=O)c2ccccc21 | inactive: > 100 µM
16 | NC(=S)N/N=C(\C(=O)Nc1ccc(Cl)c(Cl)c1)C1=NN(c2ccccc2)C(c2cccc([N+](=O)[O-])c2)CC1=O (stereo not given) | inactive: > 100 µM
17 | O=C(O)CC1CC=C[C@H]2c3cc4c(cc3C(=O)NC12)OCO4 (stereo not given in full) | inactive: > 75 µM
18 | COC(=O)CCC(=O)NC1c2cccc3cccc(c23)Cn2c(=O)n(C)c(=O)n21 (stereo not given) | inactive: > 100 µM
19 | CCOC(=O)C1C(=O)C(C(=O)OCC)C(c2ccccc2)N(C)C1c1ccccc1 (stereo not given) | inactive: > 100 µM
20 | CN(C)c1ccc(/C=C2\C[N+](C)(C)C/C(=C\c3ccc(N(C)C)cc3)C2=O)cc1 | inactive: 42.1 µM
21 | COC(=O)C(CCSC)NC(=O)Cc1ccc(C(=O)c2ccccc2)cc1 (stereo not given) | inactive: > 100 µM
22 | CC[C@@]1(OC(=O)C(N)CCC(=O)O)C(=O)OCc2c1cc1n(c2=O)Cc2cc3ccccc3nc2-1 (stereo not given in full) | active: 0.404 µM
23 | Cc1cn(C2C=CC(COP(=O)(OCc3ccc([N+](=O)[O-])o3)N(C)CCCCCl)O2)c(=O)[nH]c1=O (stereo not given) | inactive: 13.4 µM

Row | Structure (SMILES) | GI50
24 | CC1(C)[C@@H]2C[C@H]1c1cnc(-c3ccccn3)cc1[C@H]2C(O)[C@@H]1c2cc(-c3ccccn3)ncc2[C@H]2C[C@@H]1C2(C)C (stereo not given in full) | active: 0.0479 µM
25 | O=c1[nH]/c(=C/c2ccc(OCc3ccccc3)cn2)c(=O)[nH]/c1=C/c1ccccc1 | active: 0.328 µM
26 | O=c1c2cc(S(=O)(=O)O)ccc2nc(COc2ccc(Oc3ccc(Cl)cc3Cl)cc2)n1-c1ccc(Oc2ccc(Cl)cc2)cc1Cl | inactive: 33.7 µM
27 | COc1cc2ccc1OCc1cccc(n1)COc1ccc(cc1OC)/C=N\CCNCCNCC/N=C\2 | inactive: > 100 µM
28 | CC1(C)O[C@H]2[C@H](O)C[C@](O)(CO)C[C@H]2O1 | inactive: > 100 µM
29 | O=[N+]([O-])c1ccc2occ3c2c1CCC3 | inactive: > 100 µM
30 | CN(C)/N=N/c1ccccc1 | inactive: > 100 µM
31 | CCCc1nnc2sc(COc3ccc(OCc4nn5c(CCC)nnc5s4)c(Cl)c3)nn12 | inactive: 30.4 µM
32 | CN(C)CCNC1=Nc2ccccc2C(=O)N2CSCC12 (stereo not given) | inactive: > 100 µM
33 | CC(=O)Oc1ccc2c(c1)Oc1cc(C(C)=O)ccc1C21OC(=O)c2ccccc21 (stereo not given) | inactive: > 100 µM
34 | Cc1nc2ccc(S(=O)(=O)O)cc2c(=O)n1-c1ccc(C(=O)NN2C(=O)C(Cl)C2c2cccs2)cc1 (stereo not given) | inactive: > 100 µM
35 | CCCc1c(-c2ccccc2)[nH]c2ccccc2c1=O | inactive: 82.8 µM
36 | CC1(C)C(=O)C(C)(C)C1=NN | inactive: > 100 µM
37 | Cc1c(CN)c(C)c(CN)c(C)c1CN | inactive: > 100 µM
38 | Cn1nc(S(N)(=O)=O)s/c1=N/C(N)=S | inactive: > 100 µM
39 | c1ccc(COC2NCCN2Cc2ccccc2)cc1 (stereo not given) | inactive: > 100 µM
40 | COc1cc(C2=NNC(=O)c3ccccc3N2c2nc(-c3cccs3)nc3ccc(Br)cc23)cc(OC)c1OC | inactive: 18.2 µM
41 | COCn1cnc2c(=O)nc(SC)n(-c3ccccc3)c21 | inactive: > 100 µM
42 | CC(C)SC1SCC2C(=O)N(C)C3(CC3C)C(=O)OCC(NC(=O)c3nc4ccccc4cc3O)C(=O)NC(C)C(=O)N(C)C1C(=O)N(C)C1(CC1C)C(=O)OCC(NC(=O)c1nc3ccccc3cc1O)C(=O)NC(C)C(=O)N2C (stereo not given) | active: < 0.0001 µM
43 | COc1ccc(C2S/C(=C\c3cc(OC)c(OC)c(OC)c3)C(=O)N2NC(=O)Cc2ccccc2)cc1 (stereo not given) | inactive: > 100 µM
44 | COc1ccc(-c2cc(-c3cc4cc(Br)ccc4nc3Cl)c(C#N)c(N)n2)cc1 | inactive: > 12.5 µM
45 | O=C(O)C1=CN(c2ccncc2)C(c2ccco2)=CC1c1ccccc1[N+](=O)[O-] (stereo not given) | inactive: 16.7 µM
46 | C=C1C(=O)O[C@@H]2/C=C(\C)CC/C=C(/COC(C)=O)C[C@@H](OC(C)=O)[C@@H]12 | inactive: 39.8 µM

Row | Structure (SMILES) | GI50
47 | Fc1ccc(C(OCCN2CCN(CCCCl)CC2)c2ccc(F)cc2)cc1 | inactive: 29.9 µM
48 | COc1cc(/C=C/C(=O)c2cccc3ccccc23)cc(OC)c1OC | inactive: 13.5 µM
49 | CCOC(=O)c1c(C)nc2c(c1-c1cn(-c3ccccc3)nc1-c1ccccc1)C(=O)c1ccccc1-2 | inactive: > 100 µM
50 | CC1(CCCO)CCCCCCCCCC(C)(CCCO)C1=O (stereo not given) | inactive: > 100 µM
51 | C=C1C(C)C2C(Cc3ccccc3)NC(=O)C23C(OC(C)=O)/C=C/C(C)(O)CC(C)C/C=C/C3C1O (stereo not given) | inactive: 53.5 µM
52 | COc1ccc(OC)c2c(=O)cc(-c3ccccc3)[nH]c12 | inactive: > 100 µM
53 | CCOC(=O)C1=c2[nH]c3cccc4cccc(c43)n2C(=O)CC1c1ccccc1 (stereo not given) | inactive: > 100 µM
54 | CC(C)(C)c1ccc2c(c1)S(=O)(=O)Nc1ccc(Cl)cc1NS(=O)(=O)c1cc(C(C)(C)C)ccc1OCCOCCOCCO2 | inactive: > 100 µM
55 | O=C1N[C@H](Cc2c[nH]cn2)C(=O)N2CCC[C@@H]12 | inactive: > 100 µM
56 | COC(=O)C1=C(C=O)C2C=CC1C2 (stereo not given) | inactive: > 100 µM
57 | COc1cc(Cc2cc3c(c(C(=O)O)c2Br)OCO3)cc(OC)c1OC | inactive: > 100 µM
58 | O=C(O)C1C2C=CC(O2)C1C(=O)Nc1ncccn1 (stereo not given) | inactive: > 100 µM
59 | Cc1cc(Cl)cc2c1NC(=O)C2(O)CC(=O)c1ccc(Br)cc1 (stereo not given) | inactive: 99.8 µM
60 | O=C1NC2C(=O)N(Cc3ccccc3)C(=O)C2N1 (stereo not given) | inactive: > 100 µM
61 | N#Cc1c(-c2ccc([N+](=O)[O-])cc2)cc(-c2ccc(Nc3ccnc4cc(Cl)ccc34)cc2)[nH]c1=O | inactive: > 100 µM
62 | O=C(Cc1ccccc1)NN1C(=O)C(Cl)C1c1cccc(O)c1 (stereo not given) | inactive: 17.7 µM
63 | O=C(CC1(O)C(=O)Nc2ccccc21)c1ccc(F)cc1 (stereo not given) | inactive: > 100 µM
64 | C/C1=C\CC[C@@]2(C)O[C@@H]2C[C@@H]2[C@H](C/C(C)=C/CC1)OC(=O)C21CCN=N1 (stereo not given in full) | inactive: > 75 µM
65 | COC(=O)C1(Cc2ccccc2)Cc2c(C)ccc(C)c2C1=O (stereo not given) | inactive: 28.3 µM
66 | CCOC(=O)NC(=O)c1cn(CCSCCOC(=O)NCCCCCCNC(=O)OCCSCCn2cc(C(=O)NC(=O)OCC)c(=O)[nH]c2=O)c(=O)[nH]c1=O | inactive: > 100 µM
67 | CC(=O)Oc1c(C)c2c(c3ncccc13)OC(C)C2 (stereo not given) | inactive: 16.4 µM
68 | Cc1ccccc1N(C)S(=O)(=O)c1ccccc1[N+](=O)[O-] | inactive: > 100 µM
69 | COC(=O)Cc1cccc2c1CCC2=O | inactive: > 100 µM

Row | Structure (SMILES) | GI50
70 | CCn1c(=O)c2nc(SC)sc2n(-c2ccc(C)cc2)c1=O | inactive: > 100 µM
71 | COc1ccc(S(=O)(=O)NC(CCC(=O)NN)C(=O)NN)cc1 (stereo not given) | inactive: > 100 µM
72 | CCCCOC(=O)NC(=O)c1cn(CCCOC(=O)NCCCCCCNC(=O)OCCCn2cc(C(=O)NC(=O)OCCCC)c(=O)[nH]c2=O)c(=O)[nH]c1=O | inactive: > 100 µM
73 | COCN1C(N)=C(C(=O)OC(C)(C)C)C2=CC(=O)C=CC21C (stereo not given) | inactive: 15 µM
74 | c1cc(-c2ccsc2-c2ccsc2)cs1 | inactive: > 100 µM
75 | CN(C)c1nc(N(C)C)nc(N(C)CN(C)c2ccccc2)n1 | inactive: > 100 µM
76 | OC[C@H]1O[C@@H]2O[C@@](COCc3ccccc3)([C@H](OCc3ccccc3)[C@H]2O)[C@@H]1OCc1ccccc1 | inactive: 13.6 µM
77 | COc1cc2c(cc1OC)[C@H](C)N1CCc3cc(OC)c(OC)cc3[C@@H]1C2 | inactive: > 100 µM
78 | CCOC(=O)NC(NC(C)CC)(C(F)(F)F)C(F)(F)F (stereo not given) | inactive: > 100 µM
79 | COc1cccc(/C(C=O)=C(\Cl)c2ccc(OC)c(OC)c2)c1 | inactive: 15.3 µM
80 | Nc1ncn(C2OC(COP(=O)(O)O)C(O)C2O)c(=O)n1 (stereo not given) | inactive: > 94 µM
81 | COC(=O)C1C=CCON2CCc3c(n(C)c4ccccc34)C12 (stereo not given) | inactive: > 100 µM
82 | OC(c1ccc(Cl)cc1)(c1ccc(Cl)cc1)c1cncnc1 | inactive: 16.6 µM
83 | Cc1ccc2c(O)cc(-c3ccc(F)cc3)nc2n1 | inactive: 39 µM
84 | O=c1ncccn1[C@@H]1O[C@H](CO)[C@@H](O)[C@@H]1F | inactive: > 100 µM and inactive: > 95.1 µM
85 | CN1CCN(c2nc(N)c(Br)c(Cl)n2)CC1 | inactive: > 100 µM
86 | O=C(O)[C@@H]1C[C@@H](O)CN1 | inactive: > 100 µM
87 | Nc1ccc(-c2nc3ccccc3s2)cc1C(F)(F)F | inactive: 15.5 µM
88 | CC(C)C[C@H](NC(=O)[C@@H](N)Cc1cccc2ccccc12)B(O)O | active: 0.251 µM
89 | c1ccc2c(c1)nc1n2CCNC1 | inactive: > 100 µM
90 | COc1cc(-c2oc3c(OC)c(O)c(OC)c(O)c3c(=O)c2OC)cc(O)c1OC | inactive: 42.7 µM
